Source: PubChem BioAssay (NCI)
Where “and” joins values, the source holds several entries; their conditions need not be identical. Equal entries are not always repeated.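 Tested at 5 concentrations; 48 h exposure; 96-well plates; endpoints linearly interpolated, else capped at highest concentration. Abbreviation: GI50, concentration required for 50% inhibition of growth. TGI denotes the concentration required for complete inhibition of growth.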

Test system: NCI-H322M lung
Test: growth of human tumour cells (NCI), 48 h

SMILES | TGI | GI50
O=[N+]([O-])c1cnccc1-n1nnc2ccccc21 | > 70.4 µM | –
COc1ccc(/C=C/C(=O)N[C@@H]2C(=O)N3[C@@H]2SC(C)(C)[C@@H]3C(=O)O)cc1OC | > 100 µM | –
COc1ccc2c(C(=O)NCCCCCC(=O)O)cc3cc4c(cc3c2c1)OCO4 | > 100 µM | > 100 µM
CC(=O)Oc1ccc(C2SCc3nc4ccccc4n32)cc1 (stereo not given) | > 100 µM | –
Cn1c(=O)ccc2cc(C(=O)c3ccccc3)ccc21 | > 100 µM | –
Nc1ncnc2c1c(-c1ccc(Oc3ccccc3)cc1)nn2C[C@H]1SSC[C@H]1O | 4.13 µM | 1.12 µM
CCOc1ccc(-n2cc(-c3ccc(N(C)C)cc3)[n+]3c2CCCCC3)cc1 | > 100 µM | 3.56 µM
OCC1C2C=CC(O2)[C@H]1CO (stereo not given in full) | > 100 µM | –
COc1ccc(-c2nn(C(=O)c3cc(OC)c(OC)c(OC)c3)c3cc(N)ccc23)cc1 | 20.5 µM | 0.108 µM
O=C1C2Cc3ccccc3CN2C(=O)N1CCN1CCOCC1 (stereo not given) | > 100 µM | –
COC(=O)/C=C/c1cc(OC)c2c(c1)C(C(=O)OC)C(c1ccc(O)c(OC)c1)O2 (stereo not given) | > 100 µM and 77.1 µM | 29.2 µM and 5.23 µM and 9.97 µM
COc1cc(/C=C2\CCCC3=C2N=C2SC=NN2C3c2cc(OC)c(OC)c(OC)c2)cc(OC)c1OC (stereo not given) | > 100 µM | 5.47 µM
Clc1ccc2c(NCCCNCc3ccc4c(c3)OCO4)ccnc2c1 | 13.2 µM | 3.04 µM
O=c1[nH]nc(-c2ccccc2)c2[nH]c3c(c12)CCCc1ccccc1-3 | 83.9 µM | –
O=C1CCCC1C(O)(C(F)(F)Cl)C(F)(F)Cl (stereo not given) | > 10 µM | –
CCn1cc(C(=O)O)c(=O)c2cc(F)c(N3CCNCC3)nc21 | > 100 µM | –
Cc1ccc(S(=O)(=O)N/N=C2/C3CC4CCC2C4C3)cc1 (stereo not given) | > 100 µM | –
O=CC1C(=O)Nc2nc3ccccc3n2C1c1ccccc1 (stereo not given) | 33.9 µM | –
Nc1nc(N)c(N=Nc2ccc([As](=O)(O)O)c(O)c2)c(N)n1 | > 100 µM | –
Cc1cnc2n(c1=O)Cc1ccccc1CO2 | 37.3 µM | 17.7 µM
COc1cc(C2C(Cl)C(=O)N2NC(=O)c2ccccc2O)cc(OC)c1OC (stereo not given) | > 10 µM | –
NC1=C(O)/C(=N/NS(=O)(=O)c2ccccc2)C(c2cccc(Cl)c2)O1 (stereo not given) | > 100 µM | –
COC(=O)C1=CCS(=O)(=O)C1 | > 100 µM | –
C=C(C)[C@H]1C=C[C@@H](OC(C)=O)[C@@]2(COC(C)=O)[C@H](OC(=O)CCC)[C@H]3[C@@H](OC(C)=O)[C@@H](C)C[C@]3(O)C(=O)[C@@](C)(OC(C)=O)[C@H]12 | > 100 µM | –
Cc1csc(CP(=O)(OC(C)C)OC(C)C)n1 | > 100 µM | –

SMILES | TGI | GI50
CC(=O)SC(C[N+](=O)[O-])c1ccccc1 (stereo not given) | 36.9 µM | –
O=C(O)c1cc2sc(C(=O)O)cc2s1 | > 100 µM | –
COc1ccc(/C=N/C2=C(C#N)C(c3ccccc3)c3ccc4ccccc4c3O2)cc1 (stereo not given) | > 100 µM | 0.68 µM
C=C1[C@@H]2CCC(C)(C)[C@H]1CCC(=O)[C@@H]2C(=O)OC | > 100 µM | –
O=C(Nc1ccc(-n2cc(-c3ccncc3)c(-c3ccc(Cl)c(O)c3)n2)cc1)c1ccc(Cl)c(C(F)(F)F)c1 | > 25.2 µM | 3.11 µM
COc1ccc2nc3c(cc2c1)C(=O)CC(C(F)(F)F)C3 (stereo not given) | > 100 µM | 2.62 µM
N[C@@H](Cc1ccc(N(CCCl)CCCl)cc1)C(=O)O | 98.4 µM and 199 µM | 52.4 µM
COc1ccc(/C=C/c2cnnc3ccccc23)cc1OC | > 10 µM | –
CCc1cc(Cc2cc(CC)cc(C(C)(C)C)c2O)c(O)c(C(C)(C)C)c1 | 8.83 µM | 2.71 µM
COC1=C2C[C@](OC)(C#CC=CC#CC2O)CC1(C)C (stereo not given in full) | > 100 µM | –
COc1ccc2c(c1)[n+](=O)c(C(=O)C/C(=N\NC(=O)C[N+](C)(C)C)C(=O)Nc1cc(Cl)ccc1Cl)c(C)n2O | > 100 µM | –
COc1cc2oc(=O)cc(C)c2c(OC)c1OC | > 100 µM | –
CCCCCCCCCCCC(=O)[O][Sn]([CH2]CCC)([CH2]CCC)[CH2]CCC | 0.199 µM | 0.0692 µM
COc1ccc([C@H]2C=C(c3cc(F)c(Cl)cc3Cl)N=c3s/c(=C\c4ccc(-c5ccc(Cl)cc5Cl)o4)c(=O)n32)cc1 | > 100 µM | –
O=c1c2ccc(Br)cc2nc(-c2ccccc2)n1NC1OC(CO)C(O)C(O)C1O (stereo not given) | > 100 µM | –
CCOC(=O)/C(C#N)=C/c1[nH]c(C)c(C)c1C | > 100 µM | –
Cn1c(=O)c2nc3sc4ccccc4c(=N)n3c2n(C)c1=O | > 100 µM | –
COc1ccc(-n2cc(-c3ccc(F)cc3)[nH]c2=O)cc1OC | > 100 µM | > 100 µM
COc1ccc(-c2cc(-c3ccncc3)nc(N)c2-c2ccc(F)cc2)cc1 | > 100 µM | –
O=c1c(Br)ccc(Br)cc1Br | 26.3 µM | 12.4 µM
COc1ccc2oc(=O)c(-c3nc4ccccc4s3)cc2c1 | > 73.4 µM | –
Cc1nc2ccccc2n1Cc1ccc(NC(=S)NC2CCCCC2)cc1 | > 100 µM | –
Cc1cccc2c1CC1(Cc3c(C)cccc3C1=O)C2=O | > 100 µM | –
COc1ccc(/C=C2/C(=O)C(c3ccccc3)N(c3ccccc3)C2=O)cc1OC (stereo not given) | > 10 µM | –
